# In PubChem BioAssay AID1346428 (National Center for Advancing Translational Sciences (NCATS), 2018):
# Where “and” joins values, the source holds several entries; their conditions need not be identical. Equal values may be shown once. About 1,200 (2.5%) of roughly 48,000 compounds were called active. About 2% were inconclusive and are not listed.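 How the source made its calls: active means activation of at least 60% and not above a set upper limit (about 1 call in 100 departs from these limits); inconclusive means activation of 40% to 60%, or above that upper limit; inactive means activation under 40%.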 The list shows a part of the results.
# Target: Probable G-protein coupled receptor 32 (Homo sapiens) (UniProt O75388)
# UniProt O75388, sequence (O75388 whole entry, looked up): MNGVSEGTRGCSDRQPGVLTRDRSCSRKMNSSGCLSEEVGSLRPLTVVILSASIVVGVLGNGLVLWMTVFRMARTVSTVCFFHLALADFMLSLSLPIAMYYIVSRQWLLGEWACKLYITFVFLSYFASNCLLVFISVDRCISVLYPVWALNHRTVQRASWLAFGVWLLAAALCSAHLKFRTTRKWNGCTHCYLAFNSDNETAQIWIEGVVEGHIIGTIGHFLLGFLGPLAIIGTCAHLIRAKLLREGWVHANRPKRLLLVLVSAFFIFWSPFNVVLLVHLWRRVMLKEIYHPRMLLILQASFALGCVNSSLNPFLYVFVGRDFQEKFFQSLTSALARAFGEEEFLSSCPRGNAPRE
# Assay: qHTS for Agonists of Human Resolvin D1 Receptor DRV1; further: 0% is about no effect
# Conditions: CHO-K1 GPR32 beta-arrestin PathHunter luminescence, 90 min; at 76.9 µM; active compounds read high; zero percent set by DMSO-only wells
# In short: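 CHO-K1 cells stably expressing ProLink-tagged GPR32 and Enzyme Activator-tagged beta-arrestin were seeded at 2,500 cells/well overnight, exposed to compounds for 90 min at 37 °C, then read by beta-Gal complementation chemiluminescence after 1 h detection reagent.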
row,SMILES,activation
1,O=[N+]([O-])c1c2ccccc2cc2ccccc12,inactive: 42.2%
2,O=C(Nc1ccc2c(c1)OCO2)c1cccn(Cc2cccc([N+](=O)[O-])c2)c1=O,inactive: -4.69%
3,COc1ccc(NC(=O)CCc2nc(C3=CCN(Cc4cccc(Cl)c4)CC3)no2)c(OC)c1,inactive: 27.2%
4,O=S1(=O)N(Cc2ccccc2Cl)CCCN1Cc1ccccc1Cl,inactive: -15.2%
5,Cc1cccc(-c2nn3c(=O)cc(CN4CCN(C(=O)COc5ccc(Cl)cc5)CC4)nc3s2)c1,inactive: 4.78%
6,CN(N=O)c1cc(O)ccc1O,inactive: 23.7%
7,CC(C)=CCN1CC[C@@]2(C)c3cc(O)ccc3C[C@@H]1[C@@H]2C,inactive: 20.5%
8,CC(N)Cc1c[nH]c2ccc(O)cc12 (stereo not drawn),inactive: -5.74%
9,O=c1c2ccccc2nc(/C=C/c2ccccc2F)n1-c1cccc(O)c1,inactive: -33.1%
10,CCc1nc(SC)ncc1C(=O)Nc1ccc(Cl)cc1C(=O)c1ccccc1,inactive: -16.4%
11,COc1cccc(C2SCC(=O)Nc3c2c(C)nn3-c2ccc(C)c(Cl)c2)c1OC (stereo not drawn),inactive: 15.5%
12,COc1ccc2c3c1O[C@H]1[C@H](O)CC[C@H]4[C@@H](C2)N(C)CC[C@@]341,inactive: -24.3%
13,NC(Cc1cc(O)c(O)cc1O)C(=O)O (stereo not drawn),inactive: -7.14%
14,COc1cc(CC#N)cc(OC)c1OC,inactive: -16.6%
15,CCC(C)C(C)(COC(N)=O)COC(N)=O (stereo not drawn),inactive: 5.7%
16,Cc1cccc(CN2C(=O)CN=C(c3ccccc3)c3ccccc32)c1,inactive: -27.8%
17,COc1ccc(-n2c(/C=C/c3cccc(F)c3)nc3ccccc3c2=O)cc1Cl,inactive: -9.03%
18,O=C(N[C@@H]1N=C(c2ccccc2F)c2cccc3c2N(CC3)C1=O)c1cc2ccccc2[nH]1,inactive: 2.52%
19,Cc1ccc(NC(=O)Cn2cc(C(=O)c3ccccc3)c3ccccc32)c(C)c1,inactive: -16.8%
20,C[C@]12N[C@H](Cc3ccccc31)c1ccccc12,inactive: -7.81%
21,CCOc1ccc(CN(CCc2ccc3c(c2)OCO3)Cc2ccc(C)cc2)cc1,inactive: -35.3%
22,O=C1CCCN1CC#CCN1CCCC1,inactive: -1.05%
23,CC(C)(C)c1o[nH]c(=O)c1CC(N)C(=O)O (stereo not drawn),inactive: -3.63%
24,CC(C)Cc1nc2cccnc2n1C1CCNCC1,inactive: -21.4%

row,SMILES,activation
1,Cc1cccc(-n2nc(C)c3c2NC(=O)CSC3c2ccccc2Cl)c1 (stereo not drawn),active: 63.2%
2,CCCCC12CN3CC(C)(CN(C1)C3c1ccccn1)C2=O (stereo not drawn),inactive: -18.4%
3,Oc1cc(Cl)ccc1Oc1ccc(Cl)cc1Cl,inactive: -37.1% and inactive: 47.9%
4,CC1(C)C(C=C(Cl)Cl)C1C(=O)OC(C#N)c1cccc(Oc2ccccc2)c1 (stereo not drawn),inactive: -14.2%
5,COc1ccc2[nH]cc(CCN(C(C)C)C(C)C)c2c1,inactive: -50.6%
6,CCN(CC)C(=O)c1ccc(NC(=O)CCn2nc(-c3ccc(Cl)cc3)c3ccccc3c2=O)cc1,inactive: 5.02%
7,Cc1ccc(Cl)c(O)c1,inactive: 5.92%
8,CN1C[C@@H](NS(=O)(=O)N(C)C)C[C@@H]2c3cccc4c3c(cn4C)C[C@H]21,inactive: -6.56%
9,COc1cc(CC(C)N)cc(OC)c1OC (stereo not drawn),inactive: 18%
10,C[N+](C)(C)CC#CCOC(=O)Nc1cccc(Cl)c1,inactive: 4.23%
11,COc1ccc(CN2CCN(C(=O)COc3ccccc3)CC2)c(OC)c1,inactive: 4.75%
12,Cc1cccc(C2CC(=O)Oc3c2c(=O)oc2ccccc32)c1 (stereo not drawn),inactive: -11%
13,CCN(CC)C(=O)c1ccc(NC(=O)CCn2nc(-c3ccc(C)cc3)c3ccccc3c2=O)cc1,inactive: -26.9%
14,C=CCN1CCC23c4c5ccc(O)c4O[C@H]2C(=O)CC[C@@]3(O)C1C5 (stereo partly drawn),inactive: -10.4%
15,Oc1cccc2cccnc12,inactive: -26.4% and inactive: 6.21%
16,CCOc1ccc(CN(CCc2ccc3c(c2)OCO3)Cc2cccc(C)c2)cc1,inactive: -42.9%
17,CC(C)(O)C(Cl)(Cl)Cl,inactive: -1.68%
18,CCCCC(CC)COC(=O)c1ccccc1C(=O)OCC(CC)CCCC (stereo not drawn),inactive: -17.7%
19,Oc1ccc(Cl)cc1Cc1ccccc1,inactive: 48.5% and inactive: 45.1%
20,c1ccc(N2CCNCC2)cc1,inactive: -8.37%
21,CCCCc1ccc(C(=O)O)nc1,inactive: 13%
22,CCC1(c2ccccc2)CCC(=O)NC1=O (stereo not drawn),inactive: -25.7%
23,c1cc2ccc3cccc4ccc(c1)c2c34,inactive: -8.75%
24,Oc1ccc2c3c1O[C@H]1c4[nH]c5c(c4C[C@@]4(O)[C@@H](C2)N(CC2CC2)CC[C@]314)C[C@@]1(O)[C@H]2Cc3ccc(O)c4c3[C@@]1(CCN2CC1CC1)[C@H]5O4,inactive: -13.5%
